# Data reported in the supplement of paper PMC11417369.
# The list shows a part of the results.
# Tested on: PfAP2-HC AP2 domain (GST-tagged)
# Assay: gcPBM binding intensity (ln(normalized median fluorescence intensity)); higher = stronger DNA binding
# In short: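 Binding intensity values are the highest Masliner-normalised natural-log median intensity among replicate spots of either probe orientation. The binding step lasted 1 h in 1× PBS with 1% milk, 0.2 mg/ml BSA, 0.5% salmon testes DNA and 0.03% Triton X-100, using GST-tagged P. falciparum DNA-binding domains expressed in E. coli on an Agilent 4 × 180k array of primer-extended double-stranded 36-bp intergenic genomic probes plus negative controls. Alexa488 anti-GST antibody and a 488 nm scan detected bound protein.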
row,Sequence,gcPBM binding intensity (ln)
1,TATTATAGTATATATTGTACATATATATATTTTTTA [XGTACX_site8831],9.69
2,ATAATAATATATAGTACACACAAAAATGGAAGTAAA [CACACA_site3318],10.2
3,TGTTATGAGAACAGCACACAAGCTACATCATATATA [CACACA_site870],9.74
4,TATATATAAGATTGATGTACGATTTTGGTGTCTTAT [XGTACX_site2611],9.67
5,AACATATGATTAAACTGTACAAGAAAAATATAACAT [XGTACX_site4477],9.84
6,GAGAGGATCATCAATTCACACACATAAAAATGAAGT [CACACA_site9010],9.86
7,TAAAAATATTATAATGCATGCAAAATATTGTTATAA [TGCATGCA_site244],9.63
8,ATAGTTTTTCCAATTCAAAAAAAAAAAAAAAAAAAA [CACACA_negctrl_site969],8.91
9,AAAGTATAAATAAATACACACATATTTATTTATATA [CACACA_site7375],9.81
10,TAATTTATCCTATAATGTACTTATAAAATATATCAT [XGTACX_site1460],9.57
11,ATGTACATAAACCGCACACATATAAAAAAATAAATA [CACACA_site5571],10.2
12,ATTCAGAGTATATAAAAATTAATATATACATAATAT [CACACA_negctrl_site1782],9.62
13,AGTCCATTTTATTATTGTACATATTAATTTATATCA [XGTACX_site672],9.86
14,TAGATATTTTTGAAAAGTACAAATTTTTAAAAATTA [XGTACX_site4420],9.36
15,TTATATAATGACAAAAAAAAAAAAAAAAAAAAAAAA [CACACA_negctrl_site1467],8.73
16,GTATGATTACAAGAAAGTAGTCCACTTTAACAACAA [CACACA_negctrl_site1304],9.73
17,ATATATATATAAATATGTACATATATACATATATAC [XGTACX_site2374],9.7
18,AATATTTTGTTATTTATTTAATCTAATATTACTATC [CACACA_negctrl_site4],9.69
19,AAAAAAAAAAAATACACACAAACACAAATTAAATAA [CACACA_site3809],10.3
20,ATTATAGAATATTGAAGTACAAAATTTAAAATAAGT [XGTACX_site1468],9.73
21,TAGGAAAATTACAAAAGTACTTGGCACATAATAATG [XGTACX_site6005],9.62
22,TATATATATATATATGCACACATTTATACAATTTTA [CACACA_site2986],9.51

row,Sequence,gcPBM binding intensity (ln)
1,ATCATATCCACCAAATGAATAATATAAAATAATATA [XGTACX_negctrl_site193],9.53
2,AAATAACATAATAAGGGTACATTAATTTCGATAATG [XGTACX_site835],9.83
3,TATTTTGTCATAGAACGTACTTATAAATATTTTTTT [XGTACX_site8424],9.5
4,ATAGAAGCTGTTGACGAAGAAAAAAAAAAAAAAAAA [CACACA_negctrl_site110],9.05
5,AGAAAAAAAAAAAAAAAACACACGGTACATCCAAAG [CACACA_site124],9.88
6,ATCAAATTATAATCATGTACAAATAAAAAAAAAAAA [XGTACX_site313],9.61
7,AAATATCTACAAATATGTACATATTTTTTTTGGCTT [XGTACX_site6301],9.53
8,TTTGGTAAGCGTGTCGCATGTAGAACAAGTCTACAT [TGCATGCA_site577],9.48
9,AATAGGTGCCTTTTTTCACACACATGTCAACTAAAT [CACACA_site8846],9.98
10,ATGAAATTATTATATAAACACACATTTATTTTATTT [CACACA_site8597],9.74
11,ATTCTTTTTTTTTTCTTATATTCTAATCACCACCTT [XGTACX_negctrl_site179],9.5
12,TAAAATTAAATGAAATCATTATTCATTTTTATTTTA [CACACA_negctrl_site1281],9.36
13,CATATAAATAAACACACACACACATATATATATATA [CACACA_site5309],10.5
14,TATATATATATTTTTGGTACAGATATTTTCTTCTCT [XGTACX_site4432],9.71
15,TTACAACCATAAAATGCATGTAAATGACAAAAAAAA [TGCATGCA_site944],9.73
16,AATATATATATATATTGTACACACATTTATGCATAT [XGTACX_site6856],10.1
17,AGGAACATTTACGCCCCACACACCTACCAACAAAAA [CACACA_site3827],10.2
18,ATTAAAATGGAGTATTAATATGATATATATATATAT [GTGCAC_negctrl_site509],9.81
19,TAAATACAGACATACACACATACACCCACATATATA [CACACA_site547],10.3
20,GTTAATTTAATTATATGTACGAAAAAATACGTTATA [XGTACX_site1306],9.48
21,TTTTTATTTTTTTATTTCTTATCAAATAAAATATAT [XGTACX_negctrl_site537],9.53
22,ACATAATATACTATTGTGCACATATATATATATATA [GTGCAC_site9761],9.82

row,Sequence,gcPBM binding intensity (ln)
1,ACCCTTCAATTTAATTGTACAAGAAAAAAAAAAAAA [XGTACX_site2927],9.29
2,TGCTCAAACTTTACAAATGAACGAATATAAAAAAAG [CACACA_negctrl_site541],9.41
3,AAATAATCATAAAATAAACACACATATATAAATATA [CACACA_site7981],9.9
4,TTACAAAAAGGTAATTTACACACTGCATATAGGAAT [CACACA_site8956],9.78
5,TCTTAATATGGTAATACACACTAATATACTTTTGTT [CACACA_site4969],9.93
6,TTAAAAAAAAATGGCACACATTTTAATTTTATGTTT [CACACA_site5035],9.56
7,TTTATTTAATTCATTGCATGTAATTTTTGTGTCCAC [TGCATGCA_site677],9.61
8,TTTTATGATAATTTTGCACACACTTAGGAAAAATTA [CACACA_site1556],9.65
9,TTGTGATTATATAATCGTACATAATTTTAATCACAC [XGTACX_site398],9.58
10,AAAAAAAAAAAAAACACACACATATCTATAATATAT [CACACA_site7481],10.3
11,GAATATAAACATATTACACACATCTATATGTACTTT [CACACA_site8582],9.97
12,CAAAACAAAGTTGCCGCACACAGATACGCACCCAAG [CACACA_site3455],10
13,ATTTATTTATATAATACACACAAATATCTTAATGAA [CACACA_site6064],9.58
14,ATTTTTTCTAATGGGTGTACTGAAACGTATTTTATT [XGTACX_site6573],9.86
15,TTATTTTTTCTTTTTTTTCTTACCACAAAAATGGAT [CACACA_negctrl_site362],9.36
16,ATTTGTAATTATTAAACACACACAAAATATATATAA [CACACA_site8804],10.1
17,GTAATATTATAATATACACACATAGAATATAAATAT [CACACA_site6333],9.88
18,TTCAAGATTTATTATACACACATATTAATATATATA [CACACA_site573],9.61
19,AAAATACACCAACACACACACATATATATATATATT [CACACA_site4149],10.3
20,TTAAAGATATACAAAAGTACTTTTTTTTTCGTCATT [XGTACX_site384],9.49
21,TTCATTAAATAGAACAAAATAATAATATAACAACAA [GTGCAC_negctrl_site116],9.7
22,CCATATCTTTTTTGCACACACTACAATAAAACAAAA [CACACA_site4995],9.9

row,Sequence,gcPBM binding intensity (ln)
1,TGAGAGAGAAACGTAGTGCATAAAATCAAATTTAGA [GTGCAC_site9737],9.71
2,GGTTCATATATTAACACACACATACATATTATATAT [CACACA_site2937],10.5
3,AATAATCATAGTTCTACACACCTATATTGCAAAAAA [CACACA_site867],9.69
4,TTATAAAAAATTTTAGTGCATATATGATTTATATAT [GTGCAC_site9831],9.52
5,TAATATGTATTTACAAGTACTAACAAAATATTAAAA [XGTACX_site3379],9.59
6,TACAAAAATAAATGTTGTACTATTATTTATTTCGAT [XGTACX_site1048],9.51
7,TATATAGCATATTTCACACACACATAATGAATATTA [CACACA_site3546],10.6
8,ATGATATACGTAAACACACAAATAAAAAAAATTTAT [CACACA_site7544],9.78
9,TTTTTTAGTTTTTAGTGTACATAAATAAATAAATAA [XGTACX_site2843],9.25
10,TTAAAAAGAAAGTTCACACACATATAGATGACGGAA [CACACA_site7268],10.1
11,TGATACTTATGATAAATACACACTTGAAATTAAGGA [CACACA_site1152],9.65
12,TATATTACAAAAAGTACACACATAAATAAATACATA [CACACA_site975],9.96
13,ATGCTCAAAAGATATGCATGTACAAATATATGAAAT [TGCATGCA_site592],9.65
14,AAATTAAAATAATAATTCTACAAATTAATTTATCAT [XGTACX_negctrl_site44],9.51
15,TATCAAATGTATATATGTACTTATATTTTTTTTATA [XGTACX_site1501],9.54
16,AATATATTTTCCTGCAAACACACATATAAATGTGTA [CACACA_site532],9.71
17,ACTTCAAAAATAAACTGTACGTAAAAAAAAAAAAAA [XGTACX_site795],9.51
18,TTTCTTTTTTTTTTTGTATATTAAATCTAAAAAGGA [TGCATGCA_negctrl_site431],9.29
19,TTTAAATAAAATATTACACACTTAGAAAAATATATA [CACACA_site3663],9.58
20,TTTCGTAAAATGAAATGTACTCAAAAGTAAATATAA [XGTACX_site214],9.48
21,ACATACATACACCCACGTACGTACCGAAACACCACC [XGTACX_site1212],9.91
